The results in this text go back to the supplement of paper PMC8512760.

The other results are listed elsewhere or left out. Many values rest on one well or one pass, so single values are uncertain.
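Further: stably firefly luciferase-GFP labeled cells in 96-well plates, viability read as luciferase photon flux after d-luciferin addition, treated wells normalized to vehicle wells, single-dose high-throughput screen.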

The subject of the test is HCC-1143. Nature of the test: cell viability relative to vehicle (% of vehicle); basal-like triple-negative breast cancer lines; higher = less cytotoxic. The note with it: 10 µM; 72 h.
With `CC(C)C1C(=O)NC(CCCN=C(N)N)C(=O)NCC(=O)NC(CC(=O)O)C(=O)NC(Cc2ccccc2)C(=O)N1C` (configuration not stated) [Cilengitide], the cell viability stood at 85.1.

The compound `CC(O)C(=O)O.CC(O)C(=O)O.CN1CCN(c2ccc3c(c2)NC(=C2C(=O)N=c4cccc(F)c4=C2N)N3)CC1` [Dovitinib Dilactic acid] returned a cell viability of 41.8.

For `CC1(C)O[C@@H]2C[C@H]3[C@@H]4CCC5=CC(=O)C=C[C@]5(C)[C@H]4[C@@H](O)C[C@]3(C)[C@]2(C(=O)CO)O1` [Desonide], the cell viability was found to be 90.7.

`CN(C)CC=CC(=O)Nc1cc2c(Nc3ccc(F)c(Cl)c3)ncnc2cc1OC1CCOC1.O=C(O)C=CC(=O)O.O=C(O)C=CC(=O)O` (configuration not stated) [Afatinib dimaleate] gave a cell viability of 34.1.

For the compound `NC(CO)(CO)CO` [Trometamol], the cell viability was 67.3.

Take `CC1=C2N=C(C=C3N=C(C(C)=C4[N-]C(C)(C5N=C1C(C)(CCC(=O)NCC(C)OP(=O)([O-])OC1C(CO)OC(n6cnc7cc(C)c(C)cc76)C1O)C5CC(N)=O)C(C)(CC(N)=O)C4CCC(N)=O)C(C)(CC(N)=O)C3CCC(N)=O)C(C)(C)C2CCC(N)=O.[CH3-].[Co+3]` (configuration not stated) [Methylcobalamin]: the cell viability worked out at 77.9.

The compound `O=C1NC([O-])=NC1(c1ccccc1)c1ccccc1.[Na+]` [Phenytoin sodium] came in with a cell viability of 73.9.

With `CCC(C)C(=O)OC1CC(C)C=C2C=CC(C)C(CCC3CC(O)CC(=O)O3)C21` (configuration not stated) [Lovastatin], the cell viability was determined as 109.

Compound `C#CC1(OC(C)=O)CCC2C3CCC4=CC(OC(C)=O)CCC4C3CCC21C` (configuration not stated) [Ethynodiol diacetate] had a cell viability of 73.7.

On to `CC1(O)CC(c2nc(-c3ccc4ccc(-c5ccccc5)nc4c3)c3c(N)nccn23)C1` (configuration not stated) [Linsitinib], for which the cell viability was 75.8.

As to `CCCCOc1cc(C(=O)NCCN(CC)CC)c2ccccc2n1` [Dibucaine], the cell viability was determined as 73.5.

For the compound `C#CC1(O)CCC2C3CCc4cc(O)ccc4C3CCC21C` (configuration not stated) [Ethinyl Estradiol], the cell viability was determined as 85.

With `CCC(C)n1ncn(-c2ccc(N3CCN(c4ccc(OCC5COC(Cn6cncn6)(c6ccc(Cl)cc6Cl)O5)cc4)CC3)cc2)c1=O` (configuration not stated) [Itraconazole], the cell viability worked out at 64.9.

As to `O=C1C(CCC(O)c2ccc(F)cc2)C(c2ccc(O)cc2)N1c1ccc(F)cc1` (configuration not stated) [Ezetimibe], the cell viability was determined as 77.3.

As to `O=C(O)c1ccccc1` [Benzoic Acid], the cell viability came to 97.7.

In the case of `CCNC1CC(N)C(OC2OC(CN)=CCC2N)C(O)C1OC1OCC(C)(O)C(NC)C1O.CCNC1CC(N)C(OC2OC(CN)=CCC2N)C(O)C1OC1OCC(C)(O)C(NC)C1O.O=S(=O)(O)O.O=S(=O)(O)O.O=S(=O)(O)O.O=S(=O)(O)O.O=S(=O)(O)O` (configuration not stated) [Netilmicin Sulfate], the cell viability was 69.4.

In the case of `CCN(Cc1ccncc1)C(=O)C(CO)c1ccccc1` (configuration not stated) [Tropicamide], the cell viability is 84.8.

`CC(C(=O)[O-])c1cccc(Oc2ccccc2)c1.CC(C(=O)[O-])c1cccc(Oc2ccccc2)c1.[Ca+2]` (configuration not stated) [Fenoprofen Calcium]: the cell viability was determined as 116.

`O=c1[nH]c(=O)n(C2CC(O)C(CO)O2)cc1F` (configuration not stated) [Floxuridine] registered a cell viability of 79.6.

In turn, `CCNC1CC(C)S(=O)(=O)c2sc(S(N)(=O)=O)cc21.Cl` (configuration not stated) [Dorzolamide HCl] registered a cell viability of 103.

In the case of `Nc1nnc(-c2cccc(Cl)c2Cl)c(N)n1` [Lamotrigine], the cell viability was determined as 71.7.

`CC(C)(Oc1ccc(Cl)cc1)C(=O)O` [Clofibric Acid] came in with a cell viability of 68.8.

On to `CCCC(CCC)C(=O)[O-].[Na+]` [Valproic acid sodium salt (Sodium valproate)], for which the cell viability was 84.

Consider `CC(C(=O)O)c1ccc2c(c1)CC(=O)c1ccccc1S2` (configuration not stated) [Zaltoprofen], for which the cell viability was found to be 114.

As to `CCn1cc(C(=O)O)c(=O)c2cc(F)c(N3CCN(C)CC3)cc21.CS(=O)(=O)O` [Pefloxacin Mesylate], the cell viability turned out to be 74.7.

For `CNCCc1ccccn1.Cl.Cl` [Betahistine 2HCl], the cell viability was 80.5.

For `Cc1cc(C(C)(C)C)cc(C)c1CC1=NCCN1.Cl` [Xylometazoline HCl], the cell viability is 92.9.
